Measurements from article PMC4336329 (PLoS ONE, 2015).
The campaign covered roughly 310,000 compounds. About 14,000 (4.5%) showed an effect of 50% or more. The effect is printed as a negative number. The list shows a part of the results.

The molecules below were run against human ether-à-go-go-related gene (hERG) potassium channel (human, UniProt Q12809) (assay: primary screen, population patch clamp on CHO cells stably expressing hERG).
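Also: peak tail current of the secondary pulse compared with the same well before compound.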

Chain of human ether-à-go-go-related gene (hERG) potassium channel (Q12809 whole entry, looked up): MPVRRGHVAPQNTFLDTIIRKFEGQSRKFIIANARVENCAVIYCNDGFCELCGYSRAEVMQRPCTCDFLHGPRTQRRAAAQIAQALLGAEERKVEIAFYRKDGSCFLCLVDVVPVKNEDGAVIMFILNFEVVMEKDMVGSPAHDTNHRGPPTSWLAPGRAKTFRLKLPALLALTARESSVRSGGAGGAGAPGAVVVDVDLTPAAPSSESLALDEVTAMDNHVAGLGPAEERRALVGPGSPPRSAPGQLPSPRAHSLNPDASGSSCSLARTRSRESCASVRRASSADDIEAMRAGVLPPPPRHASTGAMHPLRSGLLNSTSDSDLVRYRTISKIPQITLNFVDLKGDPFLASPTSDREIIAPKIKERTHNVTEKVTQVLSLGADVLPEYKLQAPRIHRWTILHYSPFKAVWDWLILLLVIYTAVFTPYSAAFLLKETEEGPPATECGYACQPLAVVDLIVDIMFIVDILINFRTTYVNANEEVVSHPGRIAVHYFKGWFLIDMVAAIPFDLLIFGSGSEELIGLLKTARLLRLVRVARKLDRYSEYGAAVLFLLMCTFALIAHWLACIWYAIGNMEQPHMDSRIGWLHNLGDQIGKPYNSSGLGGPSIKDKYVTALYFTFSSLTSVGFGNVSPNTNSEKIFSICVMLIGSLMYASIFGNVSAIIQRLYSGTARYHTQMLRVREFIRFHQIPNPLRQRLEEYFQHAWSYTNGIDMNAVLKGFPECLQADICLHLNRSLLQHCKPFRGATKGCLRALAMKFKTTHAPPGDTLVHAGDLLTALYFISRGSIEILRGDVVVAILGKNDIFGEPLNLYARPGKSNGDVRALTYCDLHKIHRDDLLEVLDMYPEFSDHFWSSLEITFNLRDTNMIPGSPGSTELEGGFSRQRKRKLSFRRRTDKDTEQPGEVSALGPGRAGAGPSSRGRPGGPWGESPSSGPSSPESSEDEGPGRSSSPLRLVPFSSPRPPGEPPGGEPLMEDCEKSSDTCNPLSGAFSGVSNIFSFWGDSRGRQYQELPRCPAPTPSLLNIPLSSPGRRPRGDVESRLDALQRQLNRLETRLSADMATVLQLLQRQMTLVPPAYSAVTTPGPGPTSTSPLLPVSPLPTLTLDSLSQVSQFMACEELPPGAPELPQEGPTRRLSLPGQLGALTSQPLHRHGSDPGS

In order of rising “hERG current change (%, negative = inhibition) at 10uM” value:
1. Cc1ccccc1C1N(c2nccs2)C(=O)C2CCCN21 (stereo not shown)  -62.5%
2. COCc1ccc(CN2CCCC(CO)(Cc3cccc(Cl)c3)C2)o1 (stereo not shown)  -46.1%
3. N#Cc1ccc(Oc2ccc(S(=O)(=O)N3CCCCC3)cn2)cc1  -24.7%
4. C/C(=N\NC(=O)c1ccc(F)cc1)c1ccc(N2CCOCC2)cc1  -16.7%
5. COC(=O)[C@]1(Cc2ccccc2)N[C@H](c2ccc(-c3cc(C(C)=O)cs3)cc2)[C@@H]2C(=O)N(C)C(=O)[C@@H]21.O=C(O)C(F)(F)F  -6.3%
6. CC1CCN(C(=O)C(C)NCc2ccc(F)cc2)CC1.O=C(O)C(=O)O (stereo not shown)  -3.9%
7. O=[N+]([O-])c1cc(F)c(N2CCCCC2)cc1Br  -3.83%
8. O=C(/C=C/c1c(F)cccc1Cl)Nc1ccncc1  -3.29%
9. CC(C)C(C)NC(=O)CSc1ccc(S(=O)(=O)N2CCOCC2)cn1 (stereo not shown)  -1.56%
10. Cc1cccc(NC(=O)CSc2nnc(CNC(=O)c3ccc(S(=O)(=O)N(C)C)cc3)n2-c2cccc(C)c2)c1  0.252%
11. Cc1ccc(C)c2c1cc(C)c1nnc(SCC(=O)Nc3nc4c(s3)CCCC4)n12  1.01%
12. O=C(CN1C(=O)CC(c2ccccc2)=Nc2ccccc21)NCc1ccccc1  2.62%
13. N#Cc1ccccc1Cn1c(=O)n(Cc2ccc(C(=O)NCc3ccco3)cc2)c(=O)c2sccc21  3.38%
14. Nc1ncnc2c1ncn2[C@@H]1O[C@H](CO)[C@@H](O)[C@@H]1O  3.71%
15. O=C(Nc1ccccc1)/C(=C/c1cccc(Br)c1)NC(=O)c1ccco1  5.35%
16. COc1ccc(C(=O)Nc2ccc(-c3nnn(CC(=O)N4CCN(C(=O)c5ccco5)CC4)n3)cc2)cc1  7.09%
17. N#Cc1c(SCC(=O)Nc2nc3ccc(Br)cc3s2)sc2c(O)cc(=O)[nH]c12  9.27%
18. Cc1ccccc1NC(=O)c1ccc(NS(=O)(=O)c2cc(C(C)(C)C)cc(C)c2C)cc1  9.99%
19. Cc1ccc(S(=O)(=O)n2[nH]c(=O)cc2N)cc1  10.5%
20. CCCCOC(=O)Nc1nc2ccc([N+](=O)[O-])cc2s1  15.1%
21. Cn1cnc(S(=O)(=O)Nc2cc(-c3ccc(Cl)cc3)nn2C)c1  16.5%
22. CCOC(=O)c1sc(NC(=O)C(C)C)c(C#N)c1C  23.1%
